Several values for one entry are separate records, joined by “and”; a condition that tells them apart may be missing. Identical values can stand only once. The whole screen tested about 48,000 compounds, of which about 1,200 (2.5%) were called active. Inconclusive results (about 2%) are left out.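 The calls were made as follows: active = activation of at least 60% and not above a set upper limit (about 1 call in 100 departs from these limits); inconclusive = activation of 40% to 60%, or above that upper limit; inactive = activation under 40%.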 The list shows a part of the results.
What follows are compounds tested against Probable G-protein coupled receptor 32 (Homo sapiens) (UniProt O75388) (assay: qHTS for Agonists of Human Resolvin D1 Receptor DRV1). Details: CHO-K1 GPR32 beta-arrestin PathHunter luminescence, 90 min; at 76.9 µM; hits give high values; zero percent set by DMSO-only wells.
UniProt O75388, sequence (O75388 whole entry, looked up): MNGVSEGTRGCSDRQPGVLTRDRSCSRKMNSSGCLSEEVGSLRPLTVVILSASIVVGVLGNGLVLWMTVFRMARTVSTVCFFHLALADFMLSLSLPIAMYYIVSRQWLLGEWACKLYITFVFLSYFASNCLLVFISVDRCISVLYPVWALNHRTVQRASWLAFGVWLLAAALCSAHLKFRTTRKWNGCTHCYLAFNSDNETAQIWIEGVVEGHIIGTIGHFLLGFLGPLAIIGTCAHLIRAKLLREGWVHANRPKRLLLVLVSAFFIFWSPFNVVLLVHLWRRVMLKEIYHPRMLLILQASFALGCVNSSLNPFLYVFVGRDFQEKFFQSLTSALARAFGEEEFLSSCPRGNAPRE
How it was run: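 Cells are plated overnight, treated with compounds in DMSO for 90 minutes at 37 °C, and developed with PathHunter detection reagent for 1 hour before luminescence is read; signal reflects beta-arrestin binding to GPR32 in engineered CHO-K1 cells.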
Also: 0% is about no effect.

activation, inactive:
CC(=O)c1c(C)oc2ccc(N(C(=O)Oc3ccccc3)S(=O)(=O)c3ccc(C(C)(C)C)cc3)cc12 5.72%
COc1cc(NC(=O)c2cc(Cl)c(OC)c(Cl)c2)ccc1NC(=O)c1cc2ccccc2o1 2.21%
COCCNC(=O)CN1C(=O)CCn2nc(-c3cn(C)c4ccccc34)cc21 0.377%
COc1ccc(-c2nc3n(n2)C(c2ccccc2)C(C(=O)Nc2cccnc2)=C(C)N3)cc1 (configuration not stated) -10.7%
CCOC(=O)N1CCN(CCC(=O)Nc2cccc(F)c2)CC1 7.25%
CN1CCN(CC(=O)N2c3ccccc3C(=O)Nc3cccnc32)CC1 -13.5% and -1.39%
Cc1c(C(=O)NCc2ccc(Cl)cc2)sc2nc3n(c(=O)c12)CCC3 -9.3%
Cc1ccc(NC(=O)CC(c2ccc(F)cc2)N2Cc3ccccc3C2=O)cc1C (configuration not stated) -3.07%
Cc1c(C(=O)O)oc2c1-c1nn(Cc3ccccc3Cl)cc1CC2 -19.5%
COc1cc([C@@H]2Nc3c(F)cccc3[C@@H]3C=CC[C@@H]32)cc(Br)c1OC -11.8%
CC(=O)N(CC(O)CO)c1c(I)c(C(=O)NCCO)c(I)c(C(=O)NCC(O)CO)c1I (configuration not stated) 1.62%
CCc1ccccc1NC(=O)c1ccc(F)c(S(=O)(=O)N2CCN(c3ccccc3OC)CC2)c1 -10.4%
COc1ccc2c(Sc3ccc(C)cc3)c(C(=O)NC(C)c3ccccc3)[nH]c2c1 (configuration not stated) -7.44%
CCc1ccc(C(=O)c2cn(CC(=O)NCc3ccc(C)cc3)c3nc(C)ccc3c2=O)cc1 28.5%
Cc1ccc(Sc2ccc(N3CCC(C(=O)Nc4ccc(Cl)cc4)CC3)nn2)cc1 34%
Cc1ccc(N2C(=O)C(CC(=O)Nc3ccc(F)cc3)N(Cc3ccc4c(c3)OCO4)C2=O)cc1 (configuration not stated) -0.0487%
Cc1ccc(CNC(=O)c2ccc3c(c2)NC(=O)C(CS(=O)(=O)Cc2cccc(F)c2)N3)cc1 (configuration not stated) 3.29%
CC(=O)c1ccc(NC(=O)c2cc3c(=O)oc4ccc(C)cc4c3s2)cc1 -5.72%
Cc1ccc(CNC(=O)Cn2c(-c3cccs3)cc3cc(Cl)ccc32)cc1 -7.26%
O=C(Nc1nc2c(F)cccc2s1)c1ccc2c(c1)OCCO2 38.8%
CCOC(=O)CCNC(=O)N1CCN(S(=O)(=O)c2ccc3c(ccn3C)c2)CC1 -1.25%
CCc1nn(CC(=O)NCCCc2ccccc2)c(=O)c2cc3cc(F)ccc3n12 -8.84%
O=C(CSCn1nnc2c(=O)[nH]c(Cc3ccc(F)cc3)nc21)Nc1ccccc1 0.395%
O=S(=O)(c1ccc(Cl)cc1)c1nc(-c2ccccc2F)oc1NCc1ccccc1 2.86%
COc1ccc(NC(=O)C2=CC(c3ccc4c(c3)OCO4)=NS(=O)(=O)N2C)cc1OC -6.29%
Cc1cccc(N2C(=O)C(CC(=O)Nc3cccc(F)c3)N(CCc3ccncc3)C2=O)c1 (configuration not stated) 15.2%
CCC(Sc1nc2ncccc2[nH]1)C(=O)Nc1ccccc1F (configuration not stated) -13%
COc1ccc2c(CNCc3cccs3)c(C(=O)O)n(Cc3ccccc3C)c2c1 -4.87%
COc1cc(OC)c(N(C)C(=O)c2cc3c(s2)-c2ccccc2OC3)cc1Cl -17.1%
O=C(OCC1CCCO1)c1ccc2c(c1)N(Cc1ccc(F)cc1)C(=O)c1ccccc1S2(=O)=O (configuration not stated) -41.7%
CCC(=O)NCc1nc2ccccc2n1Cc1ccccc1 -22.3%
Cc1ccc(Cl)cc1NC(=O)N1CCC(CN2CCc3ccccc3C2)CC1 -19.4%
Cc1ccc(S(=O)(=O)N2CCCc3cc(NC(=O)c4cccc(Cl)c4)ccc32)cc1 -11.7%
CCOc1cc(CNc2ccc(O)cc2)cc(Cl)c1OCc1ccccc1 -12.5%
CCCCOc1ccc(C(=O)Nc2ccc3c(c2)N(C(C)=O)CCC3)cc1 -19.2%
Cn1cccc1-c1cc2n(n1)CCC(=O)N2CC(=O)Nc1ccc(F)cc1Cl -3.45%
COCCCNc1nc2c(-c3cccc(Br)c3)nnn2c2ccccc12 -8.27%
COC(=O)c1ccc2c(=O)n(CCCCCC(=O)N3CCN(c4cccc(C)c4C)CC3)c(=O)[nH]c2c1 -29.8%
CCOC(=O)c1c(C)[nH]c(C)c1S(=O)(=O)N1CCC(C(=O)NCc2ccc(OC)cc2)CC1 -1.05%
Cc1c(NC(=O)Cc2ccccc2)cccc1-c1nc2cccnc2s1 -7.64%
Cn1nc(-c2ccccc2F)c2cc(C(=O)N3CCN(c4ccccc4F)CC3)sc21 10.4%
CCOc1ccc(NC(=O)c2cc3nc(-c4ccc(OC)cc4)cc(C(F)(F)F)n3n2)cc1 -3.91%
O=C(CSc1nc2c([nH]c3ccccc32)c(=O)n1-c1ccc(F)cc1)Nc1ccc2c(c1)OCCO2 -22.1%
CCS(=O)(=O)N1CCc2cc(C(=O)NCc3ccc(C)cc3)ccc21 -3.59%
CCC(Cn1nnc2ccccc2c1=O)NC(=O)Nc1ccccc1Cl (configuration not stated) 22.9%
Cc1cccc(-c2cc(-c3ccccc3)nc(SCC(=O)Nc3ccccc3)c2C#N)c1 -5.79%
Cc1ccccc1OCC(=O)Nc1ccc2nc(SCC(=O)N3CCOCC3)sc2c1 27.1%
O=C(CN1C(=O)C2(SCC(=O)N2c2ccc(F)c(F)c2)c2ccccc21)Nc1cccc(Cl)c1 (configuration not stated) 26.9%
CCOc1ccc(NC(=O)CCNS(=O)(=O)c2cccs2)cc1 -0.0091%
Cc1ccc(-c2nn(CCC(N)=O)c(=O)c3ccccc23)cc1 -1.7%
COc1ccc2c(C)c(CCC(=O)NCc3ccccc3Cl)c(=O)oc2c1C 9.2%
COc1c(C)cc(NS(=O)(=O)c2ccc3c(c2)OCCO3)cc1C 28.2%
COc1ccc(CNC(=O)C2CCN(C(=O)N3CCOc4ccc(Cl)cc43)CC2)cc1 -12.3%
Cc1cc(Nc2ccccc2O)nc(C)n1 -2.14%
COc1ccc(NC(=O)CCCN2C(=O)CCn3nc(-c4cn(C)c5ccccc45)cc32)cc1 1.27%
Cc1ccc(C)c(S(=O)(=O)n2nc(C)c(S(=O)(=O)N3CCCCCC3)c2C)c1 -9.05%
Cc1cccc(C)c1-n1ncc(C(=O)NCCN2CCN(C)CC2)c1C1CCN(C(=O)OC(C)(C)C)CC1 -5.2%
CCOC(=O)c1cnc2ccc(OC)cc2c1Nc1cccc(C(C)=O)c1 11.7%
CCOc1ccc(C(=O)NCc2nc(-c3ccc(Cl)cc3)no2)cc1OCC 2.01%
Cc1cccc(NC(=O)C2CCN(S(=O)(=O)c3c(C)noc3/C=C/c3ccco3)CC2)c1 -32.5%
CCN(Cc1ccccc1)S(=O)(=O)c1ccc(F)c(C(=O)Nc2cc(C)ccc2OC)c1 -0.681%
Cc1cc(N2CCN(c3cc(Cl)ccc3C)CC2)n2nc(-c3ccccc3)nc2n1 10.5%
Cc1cc(F)ccc1S(=O)(=O)Nc1cc2c(C(=O)O)c(C)oc2c2ccccc12 6.09%
COC(=O)c1cc2sccc2n1Cc1ccc(F)cc1Cl -13.5%
CCOC(=O)c1c(C)oc2ccc(N(C(C)=O)S(=O)(=O)c3c(C)cc(C)cc3C)cc12 3.85%
COc1ccc(OC)c(CC2C(=O)Nc3ccc(Br)cc32)c1 (configuration not stated) -19.1%
O=C(COc1ccc(F)cc1)Nc1ccc2nc(SCCOc3ccccc3)sc2c1 26.4%
N#Cc1ccc(NC(=O)C2Cc3ccccc3CN2S(=O)(=O)c2ccc(F)cc2)cc1 (configuration not stated) -13.2%
CCCCNC(=O)C1CCC(Cn2c(=O)c3sccc3n(CC(=O)Nc3ccccc3)c2=O)CC1 (configuration not stated) -3.89%
O=C(Nc1ccccc1C(=O)OCc1cc(=O)n2ccsc2n1)c1ccccc1Cl 3.56%
COCCn1c(=N)c(C(=O)NC2CCCC2)cc2c(=O)n3cc(C)ccc3nc21 -5.27%
CC(=O)N(CC(O)CO)c1c(I)c(C(=O)NCC(O)CO)c(I)c(C(=O)NCC(O)CO)c1I (configuration not stated) -16.9%
COc1ccc(Oc2nc3c(c(=O)n(C)c(=O)n3C)n2Cc2ccc(Cl)cc2Cl)cc1 -2.62%
O=C(NC1CCN(Cc2ccccc2)CC1)c1ccc(Cn2c(=O)c3ccccc3n(Cc3cccc(F)c3)c2=O)cc1 -3.75%
CCN(CC)CCNC(=O)c1cn(CC)c2ccc(S(=O)(=O)N3CCc4ccccc4C3)cc2c1=O 2.71%
CCC(=O)N1CCc2cc(Br)cc(S(=O)(=O)N3CCN(c4cc(C)ccc4C)CC3)c21 -3.6%
COc1cc(-c2cc3n(C)c(C)c(CCC(=O)NC4CCCCC4)c(=O)n3n2)cc(OC)c1OC -8.92%
Cc1cccc(C)c1NC(=O)CCC(=O)N1Cc2ccccc2Oc2ncccc21 -7.2%
CCC(=O)N1CCc2cc(Br)cc(S(=O)(=O)CCC(=O)Nc3ccc(Cl)cc3)c21 -10.4%
CCOC(=O)c1cc(-c2ccc(C)cc2)n(CCC(=O)NCCc2ccc(C)cc2)c1C 15.8%
O=C(Cc1ccc(NC(=O)N2CCSc3ncccc32)cc1)NCc1cccc(Cl)c1 -4.44%
O=C(Nc1cccc(OCc2cc(=O)n3ccccc3n2)c1)Nc1cccc(C(F)(F)F)c1 -5.36%
